According to PMC3939360:
These are yes or no findings as the source states them, for the method shown. Binding seen in cells or lysates may run through a third protein. Some results given as binding are weak or reduced against the parent protein; the word gives no strength. Sequences can lack the tags named with a protein.

Amino acid sequences for entries named in this document (tags omitted). Residues count along the entry.
UniProt B2RXS4, residues 20-1842: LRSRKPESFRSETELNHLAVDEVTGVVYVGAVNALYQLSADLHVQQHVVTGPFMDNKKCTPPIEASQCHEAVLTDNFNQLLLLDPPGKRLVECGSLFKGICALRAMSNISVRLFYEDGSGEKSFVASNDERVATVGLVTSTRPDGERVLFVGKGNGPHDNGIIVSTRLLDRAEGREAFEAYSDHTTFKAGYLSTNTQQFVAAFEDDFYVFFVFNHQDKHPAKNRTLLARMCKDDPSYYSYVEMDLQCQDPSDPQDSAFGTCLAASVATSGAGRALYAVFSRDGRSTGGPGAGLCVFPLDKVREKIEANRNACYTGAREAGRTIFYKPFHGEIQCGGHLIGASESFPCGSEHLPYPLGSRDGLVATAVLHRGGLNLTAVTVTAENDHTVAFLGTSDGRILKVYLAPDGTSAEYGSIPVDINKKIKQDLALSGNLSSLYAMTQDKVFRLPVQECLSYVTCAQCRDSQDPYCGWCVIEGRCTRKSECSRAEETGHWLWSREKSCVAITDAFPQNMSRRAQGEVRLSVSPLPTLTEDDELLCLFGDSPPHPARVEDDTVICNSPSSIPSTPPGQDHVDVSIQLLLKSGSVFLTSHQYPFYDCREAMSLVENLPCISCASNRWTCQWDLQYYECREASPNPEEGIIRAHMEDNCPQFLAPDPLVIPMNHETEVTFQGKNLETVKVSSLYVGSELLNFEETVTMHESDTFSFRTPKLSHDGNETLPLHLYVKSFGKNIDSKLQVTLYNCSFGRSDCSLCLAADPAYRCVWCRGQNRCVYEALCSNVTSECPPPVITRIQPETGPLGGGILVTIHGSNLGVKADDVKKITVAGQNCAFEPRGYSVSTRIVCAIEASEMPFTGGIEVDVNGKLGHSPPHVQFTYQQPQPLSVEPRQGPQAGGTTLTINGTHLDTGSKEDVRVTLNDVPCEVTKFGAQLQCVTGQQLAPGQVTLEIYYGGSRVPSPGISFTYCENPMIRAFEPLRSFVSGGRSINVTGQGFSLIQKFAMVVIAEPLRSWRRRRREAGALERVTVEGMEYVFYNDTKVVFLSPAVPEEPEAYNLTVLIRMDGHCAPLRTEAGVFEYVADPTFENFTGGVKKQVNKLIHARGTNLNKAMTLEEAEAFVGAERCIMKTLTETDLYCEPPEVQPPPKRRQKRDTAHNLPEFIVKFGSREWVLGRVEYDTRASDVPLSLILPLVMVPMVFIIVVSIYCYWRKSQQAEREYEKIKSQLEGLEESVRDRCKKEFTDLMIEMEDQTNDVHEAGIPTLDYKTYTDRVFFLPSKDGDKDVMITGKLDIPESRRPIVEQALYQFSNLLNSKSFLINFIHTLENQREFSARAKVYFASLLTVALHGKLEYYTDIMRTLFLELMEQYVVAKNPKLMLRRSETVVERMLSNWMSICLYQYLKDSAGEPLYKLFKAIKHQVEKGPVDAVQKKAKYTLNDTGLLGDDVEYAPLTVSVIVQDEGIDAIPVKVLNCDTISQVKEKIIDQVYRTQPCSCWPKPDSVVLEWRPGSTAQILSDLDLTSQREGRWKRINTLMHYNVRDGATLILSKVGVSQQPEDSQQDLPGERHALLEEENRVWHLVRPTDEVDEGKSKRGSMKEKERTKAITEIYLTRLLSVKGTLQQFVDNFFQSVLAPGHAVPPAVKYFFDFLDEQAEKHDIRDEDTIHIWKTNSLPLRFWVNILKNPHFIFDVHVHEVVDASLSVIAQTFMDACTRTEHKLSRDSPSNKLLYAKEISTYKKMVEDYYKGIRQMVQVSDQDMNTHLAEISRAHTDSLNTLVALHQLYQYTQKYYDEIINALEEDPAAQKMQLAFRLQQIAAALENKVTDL

Legend:
FLAG-tagged Rnd3 = target: T1, FLAG-tagged Rnd3 (UniProt P61587); test: co-IP; P19 cells co-transfected with FLAG-Rnd and VSV-Plexin plasmids, lysed 24 h later in RIPA-like buffer (50 mM Tris-HCl pH 8, 150 mM NaCl, 0.5% NP40 Igepal, 10% glycerol); lysate incubated overnight at 4 °C with anti-FLAG M2 agarose beads; immunoblot with anti-VSV and anti-FLAG
T1 sequence: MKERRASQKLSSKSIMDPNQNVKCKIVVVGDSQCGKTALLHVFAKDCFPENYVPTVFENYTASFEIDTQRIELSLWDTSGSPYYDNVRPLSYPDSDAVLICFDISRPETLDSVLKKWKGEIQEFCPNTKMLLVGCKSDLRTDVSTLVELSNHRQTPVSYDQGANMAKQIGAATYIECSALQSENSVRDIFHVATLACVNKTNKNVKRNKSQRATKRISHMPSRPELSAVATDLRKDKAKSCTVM

FLAG-Rnd2 = target: T2, FLAG-Rnd2 (UniProt P52198); test: as above
T2 sequence: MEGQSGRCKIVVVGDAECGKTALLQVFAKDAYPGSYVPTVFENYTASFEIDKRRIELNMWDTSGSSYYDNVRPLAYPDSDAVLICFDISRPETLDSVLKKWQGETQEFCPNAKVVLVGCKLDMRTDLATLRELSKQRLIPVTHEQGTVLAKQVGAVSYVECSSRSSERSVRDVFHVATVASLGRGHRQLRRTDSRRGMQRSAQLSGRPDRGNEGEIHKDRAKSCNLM

In the case of “VSV-tagged Plexin B2 (from UniProt B2RXS4 20-1842) (receptor)”, the binding (FLAG-tagged Rnd3) is reported as “binds” and the binding (FLAG-Rnd2) is reported as “binds”.
